From PMC12820563, “FoxP3 forms a head-to-head dimer in vivo and stabilizes its multimerization on adjacent microsatellites”
This is one part of the list.

What follows are sequences tested against T1, MBP-FoxP1dN (Mus musculus, UniProt P58462 326-579) (assay: PD-seq (MBP pull-down with sequencing); 20 mM Tris-HCl pH 7.5, 100 mM NaCl, 1.5 mM MgCl2, 0.4 uM protein, 0.1 uM dsDNA library, 30 min, room temperature, amylose pull-down; high values mean tight binding). Conditions: protein: recombinant; tags: His6-MBP; chain copies: 2; dsDNA, one strand shown.
T1 sequence: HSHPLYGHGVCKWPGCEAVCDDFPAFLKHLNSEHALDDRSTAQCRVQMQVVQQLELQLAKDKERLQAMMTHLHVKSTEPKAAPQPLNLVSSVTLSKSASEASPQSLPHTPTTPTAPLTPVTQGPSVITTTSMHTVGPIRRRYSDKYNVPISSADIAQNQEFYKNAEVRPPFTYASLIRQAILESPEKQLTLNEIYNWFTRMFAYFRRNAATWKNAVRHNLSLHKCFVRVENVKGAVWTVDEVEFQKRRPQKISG
Procedure, shortened: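 Binding is the reads-per-million enrichment of pull-down relative to input, pooled across replicates. For this, 0.4 µM His6-MBP-tagged mouse FoxP3 or FoxP1 fragment lacking the N-terminus, made in E. coli, was incubated with 0.1 µM Klenow-filled double-stranded degenerate DNA library for 30 min at room temperature in Tris pH 7.5 buffer with NaCl and MgCl2. Complexes bound to amylose resin were washed three times before proteinase K released the DNA for PCR barcoding and Illumina sequencing.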

| Sequence | binding signal |
| --- | --- |
| GATGATTGTTCTCCCAGCTGATGAATTATGAAACTCGAGTAAACAAATTTTCCTAATCTTTCTGTTCAAGCGCCATCTAC | 0.945 RPM ratio (pull-down/input) |
| GATGATTGTTCTCCCAGCTGATGAATTTACTGGGTCGAGTAAACAAATTTTCCTAATCTTTCTGTTCAAGCGCCATCTAC | 1.05 RPM ratio (pull-down/input) |
| GATGATTGTTCTCCCAGCTGATGAATTATTTCTGTCGAGTAAACAAATTTTCCTAATCTTTCTGTTCAAGCGCCATCTAC | 1.11 RPM ratio (pull-down/input) |
| GATGATTGTTCTCCCAGCTGATGAATTTTTCGGATCGAGTAAACAAATTTTCCTAATCTTTCTGTTCAAGCGCCATCTAC | 0.904 RPM ratio (pull-down/input) |
| GATGATTGTTCTCCCAGCTGATGAATTCGGCGAATCGAGTAAACAAATTTTCCTAATCTTTCTGTTCAAGCGCCATCTAC | 0.819 RPM ratio (pull-down/input) |
| GATGATTGTTCTCCCAGCTGATGAATTACAATAGTCGAGTAAACAAATTTTCCTAATCTTTCTGTTCAAGCGCCATCTAC | 1.26 RPM ratio (pull-down/input) |
| GATGATTGTTCTCCCAGCTGATGAATTACATAATTCGAGTAAACAAATTTTCCTAATCTTTCTGTTCAAGCGCCATCTAC | 1.43 RPM ratio (pull-down/input) |
| GATGATTGTTCTCCCAGCTGATGAATTAAACAAGTCGAGTAAACAAATTTTCCTAATCTTTCTGTTCAAGCGCCATCTAC | 1.71 RPM ratio (pull-down/input) |
| GATGATTGTTCTCCCAGCTGATGAATTGCAATCGTCGAGTAAACAAATTTTCCTAATCTTTCTGTTCAAGCGCCATCTAC | 1.24 RPM ratio (pull-down/input) |
| GATGATTGTTCTCCCAGCTGATGAATTGGAAACCTCGAGTAAACAAATTTTCCTAATCTTTCTGTTCAAGCGCCATCTAC | 0.764 RPM ratio (pull-down/input) |
| GATGATTGTTCTCCCAGCTGATGAATTGTTGGCCTCGAGTAAACAAATTTTCCTAATCTTTCTGTTCAAGCGCCATCTAC | 1.27 RPM ratio (pull-down/input) |
| GATGATTGTTCTCCCAGCTGATGAATTTTCCTCATCGAGTAAACAAATTTTCCTAATCTTTCTGTTCAAGCGCCATCTAC | 0.905 RPM ratio (pull-down/input) |
| GATGATTGTTCTCCCAGCTGATGAATTATAAACATCGAGTAAACAAATTTTCCTAATCTTTCTGTTCAAGCGCCATCTAC | 2.42 RPM ratio (pull-down/input) |
| GATGATTGTTCTCCCAGCTGATGAATTACACGGGTCGAGTAAACAAATTTTCCTAATCTTTCTGTTCAAGCGCCATCTAC | 0.97 RPM ratio (pull-down/input) |
| GATGATTGTTCTCCCAGCTGATGAATTTGTCCGATCGAGTAAACAAATTTTCCTAATCTTTCTGTTCAAGCGCCATCTAC | 0.925 RPM ratio (pull-down/input) |
| GATGATTGTTCTCCCAGCTGATGAATTACGGATATCGAGTAAACAAATTTTCCTAATCTTTCTGTTCAAGCGCCATCTAC | 1.1 RPM ratio (pull-down/input) |
| GATGATTGTTCTCCCAGCTGATGAATTGATGTAGTCGAGTAAACAAATTTTCCTAATCTTTCTGTTCAAGCGCCATCTAC | 1.11 RPM ratio (pull-down/input) |
| GATGATTGTTCTCCCAGCTGATGAATTAGTATCGTCGAGTAAACAAATTTTCCTAATCTTTCTGTTCAAGCGCCATCTAC | 1.06 RPM ratio (pull-down/input) |
| GATGATTGTTCTCCCAGCTGATGAATTTCAAGTGTCGAGTAAACAAATTTTCCTAATCTTTCTGTTCAAGCGCCATCTAC | 0.848 RPM ratio (pull-down/input) |
| GATGATTGTTCTCCCAGCTGATGAATTATGCATATCGAGTAAACAAATTTTCCTAATCTTTCTGTTCAAGCGCCATCTAC | 1.23 RPM ratio (pull-down/input) |
| GATGATTGTTCTCCCAGCTGATGAATTGCGTTTTTCGAGTAAACAAATTTTCCTAATCTTTCTGTTCAAGCGCCATCTAC | 1.3 RPM ratio (pull-down/input) |

| Sequence | binding signal |
| --- | --- |
| GATGATTGTTCTCCCAGCTGATGAATTCTGCTTATCGAGTAAACAAATTTTCCTAATCTTTCTGTTCAAGCGCCATCTAC | 1.56 RPM ratio (pull-down/input) |
| GATGATTGTTCTCCCAGCTGATGAATTTCCGCCGTCGAGTAAACAAATTTTCCTAATCTTTCTGTTCAAGCGCCATCTAC | 0.812 RPM ratio (pull-down/input) |
| GATGATTGTTCTCCCAGCTGATGAATTGGCCTACTCGAGTAAACAAATTTTCCTAATCTTTCTGTTCAAGCGCCATCTAC | 0.846 RPM ratio (pull-down/input) |
| GATGATTGTTCTCCCAGCTGATGAATTCCGGTTCTCGAGTAAACAAATTTTCCTAATCTTTCTGTTCAAGCGCCATCTAC | 0.774 RPM ratio (pull-down/input) |
| GATGATTGTTCTCCCAGCTGATGAATTGAGGGAGTCGAGTAAACAAATTTTCCTAATCTTTCTGTTCAAGCGCCATCTAC | 0.742 RPM ratio (pull-down/input) |
| GATGATTGTTCTCCCAGCTGATGAATTCTCGGACTCGAGTAAACAAATTTTCCTAATCTTTCTGTTCAAGCGCCATCTAC | 0.778 RPM ratio (pull-down/input) |
| GATGATTGTTCTCCCAGCTGATGAATTATTAATCTCGAGTAAACAAATTTTCCTAATCTTTCTGTTCAAGCGCCATCTAC | 1.07 RPM ratio (pull-down/input) |
| GATGATTGTTCTCCCAGCTGATGAATTGGTGGAATCGAGTAAACAAATTTTCCTAATCTTTCTGTTCAAGCGCCATCTAC | 0.94 RPM ratio (pull-down/input) |
| GATGATTGTTCTCCCAGCTGATGAATTTCTAAATTCGAGTAAACAAATTTTCCTAATCTTTCTGTTCAAGCGCCATCTAC | 0.983 RPM ratio (pull-down/input) |
| GATGATTGTTCTCCCAGCTGATGAATTGAACCTATCGAGTAAACAAATTTTCCTAATCTTTCTGTTCAAGCGCCATCTAC | 0.946 RPM ratio (pull-down/input) |
| GATGATTGTTCTCCCAGCTGATGAATTCCCTTTGTCGAGTAAACAAATTTTCCTAATCTTTCTGTTCAAGCGCCATCTAC | 0.82 RPM ratio (pull-down/input) |
| GATGATTGTTCTCCCAGCTGATGAATTCGCGCCGTCGAGTAAACAAATTTTCCTAATCTTTCTGTTCAAGCGCCATCTAC | 0.86 RPM ratio (pull-down/input) |
| GATGATTGTTCTCCCAGCTGATGAATTATGCGGTTCGAGTAAACAAATTTTCCTAATCTTTCTGTTCAAGCGCCATCTAC | 0.993 RPM ratio (pull-down/input) |
| GATGATTGTTCTCCCAGCTGATGAATTGTAGGAGTCGAGTAAACAAATTTTCCTAATCTTTCTGTTCAAGCGCCATCTAC | 0.879 RPM ratio (pull-down/input) |
| GATGATTGTTCTCCCAGCTGATGAATTATCACCGTCGAGTAAACAAATTTTCCTAATCTTTCTGTTCAAGCGCCATCTAC | 0.976 RPM ratio (pull-down/input) |
| GATGATTGTTCTCCCAGCTGATGAATTGCAGGTGTCGAGTAAACAAATTTTCCTAATCTTTCTGTTCAAGCGCCATCTAC | 1.06 RPM ratio (pull-down/input) |
| GATGATTGTTCTCCCAGCTGATGAATTATGTATATCGAGTAAACAAATTTTCCTAATCTTTCTGTTCAAGCGCCATCTAC | 1.79 RPM ratio (pull-down/input) |
| GATGATTGTTCTCCCAGCTGATGAATTCACCCCTTCGAGTAAACAAATTTTCCTAATCTTTCTGTTCAAGCGCCATCTAC | 0.782 RPM ratio (pull-down/input) |
| GATGATTGTTCTCCCAGCTGATGAATTGCCTCGTTCGAGTAAACAAATTTTCCTAATCTTTCTGTTCAAGCGCCATCTAC | 1.01 RPM ratio (pull-down/input) |
| GATGATTGTTCTCCCAGCTGATGAATTTCGATTCTCGAGTAAACAAATTTTCCTAATCTTTCTGTTCAAGCGCCATCTAC | 0.862 RPM ratio (pull-down/input) |
| GATGATTGTTCTCCCAGCTGATGAATTTCGTAATTCGAGTAAACAAATTTTCCTAATCTTTCTGTTCAAGCGCCATCTAC | 0.954 RPM ratio (pull-down/input) |

| Sequence | binding signal |
| --- | --- |
| GATGATTGTTCTCCCAGCTGATGAATTCGATCCATCGAGTAAACAAATTTTCCTAATCTTTCTGTTCAAGCGCCATCTAC | 0.868 RPM ratio (pull-down/input) |
| GATGATTGTTCTCCCAGCTGATGAATTTCTCCAATCGAGTAAACAAATTTTCCTAATCTTTCTGTTCAAGCGCCATCTAC | 1 RPM ratio (pull-down/input) |
| GATGATTGTTCTCCCAGCTGATGAATTGTCTGAATCGAGTAAACAAATTTTCCTAATCTTTCTGTTCAAGCGCCATCTAC | 1.05 RPM ratio (pull-down/input) |
| GATGATTGTTCTCCCAGCTGATGAATTCTTTTATTCGAGTAAACAAATTTTCCTAATCTTTCTGTTCAAGCGCCATCTAC | 1.13 RPM ratio (pull-down/input) |
| GATGATTGTTCTCCCAGCTGATGAATTAGTTACGTCGAGTAAACAAATTTTCCTAATCTTTCTGTTCAAGCGCCATCTAC | 1.06 RPM ratio (pull-down/input) |
| GATGATTGTTCTCCCAGCTGATGAATTTCGAACATCGAGTAAACAAATTTTCCTAATCTTTCTGTTCAAGCGCCATCTAC | 1.02 RPM ratio (pull-down/input) |
| GATGATTGTTCTCCCAGCTGATGAATTATCATAGTCGAGTAAACAAATTTTCCTAATCTTTCTGTTCAAGCGCCATCTAC | 1.06 RPM ratio (pull-down/input) |
| GATGATTGTTCTCCCAGCTGATGAATTTGTATTTTCGAGTAAACAAATTTTCCTAATCTTTCTGTTCAAGCGCCATCTAC | 2.62 RPM ratio (pull-down/input) |
| GATGATTGTTCTCCCAGCTGATGAATTCTATGATTCGAGTAAACAAATTTTCCTAATCTTTCTGTTCAAGCGCCATCTAC | 1.06 RPM ratio (pull-down/input) |
| GATGATTGTTCTCCCAGCTGATGAATTGACCAGTTCGAGTAAACAAATTTTCCTAATCTTTCTGTTCAAGCGCCATCTAC | 0.899 RPM ratio (pull-down/input) |
| GATGATTGTTCTCCCAGCTGATGAATTGACGAGTTCGAGTAAACAAATTTTCCTAATCTTTCTGTTCAAGCGCCATCTAC | 1.04 RPM ratio (pull-down/input) |
| GATGATTGTTCTCCCAGCTGATGAATTTCAAGGTTCGAGTAAACAAATTTTCCTAATCTTTCTGTTCAAGCGCCATCTAC | 0.838 RPM ratio (pull-down/input) |
| GATGATTGTTCTCCCAGCTGATGAATTTTTTTGATCGAGTAAACAAATTTTCCTAATCTTTCTGTTCAAGCGCCATCTAC | 0.955 RPM ratio (pull-down/input) |
| GATGATTGTTCTCCCAGCTGATGAATTATTATTATCGAGTAAACAAATTTTCCTAATCTTTCTGTTCAAGCGCCATCTAC | 2.52 RPM ratio (pull-down/input) |
| GATGATTGTTCTCCCAGCTGATGAATTGAACTCCTCGAGTAAACAAATTTTCCTAATCTTTCTGTTCAAGCGCCATCTAC | 0.753 RPM ratio (pull-down/input) |
| GATGATTGTTCTCCCAGCTGATGAATTTAACGTCTCGAGTAAACAAATTTTCCTAATCTTTCTGTTCAAGCGCCATCTAC | 0.873 RPM ratio (pull-down/input) |
| GATGATTGTTCTCCCAGCTGATGAATTAACACTCTCGAGTAAACAAATTTTCCTAATCTTTCTGTTCAAGCGCCATCTAC | 1.02 RPM ratio (pull-down/input) |
| GATGATTGTTCTCCCAGCTGATGAATTTTATAACTCGAGTAAACAAATTTTCCTAATCTTTCTGTTCAAGCGCCATCTAC | 0.929 RPM ratio (pull-down/input) |
| GATGATTGTTCTCCCAGCTGATGAATTGCGAACTTCGAGTAAACAAATTTTCCTAATCTTTCTGTTCAAGCGCCATCTAC | 1.04 RPM ratio (pull-down/input) |
| GATGATTGTTCTCCCAGCTGATGAATTTTTATGTTCGAGTAAACAAATTTTCCTAATCTTTCTGTTCAAGCGCCATCTAC | 1.37 RPM ratio (pull-down/input) |
| GATGATTGTTCTCCCAGCTGATGAATTGTCCATATCGAGTAAACAAATTTTCCTAATCTTTCTGTTCAAGCGCCATCTAC | 1.1 RPM ratio (pull-down/input) |
